# Experimental data reported in publication PMC4336329 (PLoS ONE, 2015).
# In all, about 310,000 compounds went through this assay and about 2,200 (0.71%) showed an effect of 50% or more. Effects have a minus sign here. Some of the results follow.
# Biological target: human ether-à-go-go-related gene (hERG) potassium channel (human, UniProt Q12809)
# Test: primary screen, population patch clamp on CHO cells stably expressing hERG
# Chain of human ether-à-go-go-related gene (hERG) potassium channel (Q12809 whole entry, looked up): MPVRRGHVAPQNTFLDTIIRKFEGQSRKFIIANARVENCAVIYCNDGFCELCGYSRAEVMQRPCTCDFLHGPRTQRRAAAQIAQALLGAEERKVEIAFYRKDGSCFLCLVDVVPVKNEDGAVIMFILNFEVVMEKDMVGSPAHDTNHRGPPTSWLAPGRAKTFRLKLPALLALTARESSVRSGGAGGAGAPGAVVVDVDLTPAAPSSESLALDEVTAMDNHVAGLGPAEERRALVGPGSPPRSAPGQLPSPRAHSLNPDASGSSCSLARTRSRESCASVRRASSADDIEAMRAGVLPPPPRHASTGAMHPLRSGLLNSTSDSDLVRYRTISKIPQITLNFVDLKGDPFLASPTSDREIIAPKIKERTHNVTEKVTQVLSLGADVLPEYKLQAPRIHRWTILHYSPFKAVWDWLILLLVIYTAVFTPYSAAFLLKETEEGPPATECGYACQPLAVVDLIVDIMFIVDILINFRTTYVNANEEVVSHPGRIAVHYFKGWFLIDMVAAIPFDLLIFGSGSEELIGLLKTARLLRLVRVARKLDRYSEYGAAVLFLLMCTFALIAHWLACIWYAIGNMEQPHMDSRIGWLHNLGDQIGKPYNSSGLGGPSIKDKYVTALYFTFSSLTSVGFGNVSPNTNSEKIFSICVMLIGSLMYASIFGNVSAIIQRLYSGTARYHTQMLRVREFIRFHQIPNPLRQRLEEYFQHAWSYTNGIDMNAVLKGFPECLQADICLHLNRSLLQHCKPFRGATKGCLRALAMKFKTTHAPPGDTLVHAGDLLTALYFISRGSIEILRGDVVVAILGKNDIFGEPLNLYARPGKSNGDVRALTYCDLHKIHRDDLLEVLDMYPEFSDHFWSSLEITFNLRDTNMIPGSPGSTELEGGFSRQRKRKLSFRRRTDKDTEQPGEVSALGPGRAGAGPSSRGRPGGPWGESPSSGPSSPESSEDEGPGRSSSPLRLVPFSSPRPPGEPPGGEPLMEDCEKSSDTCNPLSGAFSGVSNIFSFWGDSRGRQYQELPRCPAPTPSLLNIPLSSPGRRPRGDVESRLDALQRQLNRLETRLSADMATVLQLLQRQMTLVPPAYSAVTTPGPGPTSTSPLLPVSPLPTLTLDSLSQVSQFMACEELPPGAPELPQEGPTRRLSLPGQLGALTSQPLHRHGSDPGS
row,Compound,"hERG current change (%, negative = inhibition) at 1uM [%]"
1,Cc1ccccc1NC(=O)Cn1c(=O)sc2ccccc21,6.46
2,COc1ccc(Br)cc1C(=O)O,-2.68
3,COCCNC(=O)c1onc(CSc2ccccc2)c1C(=O)O,14
4,Cc1ccc(OCc2cc(C(=O)NCCc3cccnc3)no2)cc1C,-4.55
5,COc1cccc(CN(C)CC(=O)NCc2ccccc2Cl)c1OC,10.6
6,O=C(CNS(=O)(=O)c1cccc2nsnc12)NC1CCCCC1,8.71
7,Cc1ccc(C(=O)O/N=C2\CCCc3ccccc32)cc1,9.99
8,CCOc1ccc(-c2nc(-c3cccs3)c(CC(=O)O)s2)cc1OC,16.2
9,Cc1cccc(NC(=S)Nc2ccc(Cl)c(Cl)c2)c1,14
10,Cc1cc2nccc(-c3ccncc3)n2n1,28.6
11,COc1ccccc1N(CC(=O)NC1CC2CCC1C2)S(=O)(=O)c1ccc(C)cc1 (stereo not drawn),-2
12,CC(=O)N1CCOc2ccc(S(=O)(=O)NCc3ccc(C)cc3)cc21,14.6
13,Cn1c(-c2sccc2OCc2cccc(C(F)(F)F)c2)n[nH]c1=S,11.7
14,COc1ccc(Cl)cc1NC(=O)/C=C\C(=O)O,2.73
15,COC(=O)C1CCN(C(=O)c2sc3nc(-c4ccc(F)cc4)cn3c2C)CC1,-22.5
16,COCCn1c(SCC(=O)Nc2cc(C)on2)nc2ccccc2c1=O,9.93
17,O=C(C1CCCN(Cc2cc(Br)ccc2O)C1)N1CCCCC1.O=C(O)C(=O)O (stereo not drawn),-10.3
18,CC1CCCN(C(=O)c2nn(C)c3c2CSc2ccccc2-3)C1 (stereo not drawn),-1.58
19,CC(C)(C)c1ccc(-c2nc(C#N)c(N3CCC(C(N)=O)CC3)o2)cc1,3.6
20,CC(C)c1ccc(NC(=O)NCc2cccnc2)cc1,6.81
21,CN(C)C(=O)Oc1ccc2c(=O)c(Oc3ccccc3Br)coc2c1,11.1
22,CCOC(=O)C1=C(C)NC(C)=C(C(=O)OCC)C1C(=O)OCC(=O)N1CCC(C)CC1,12.8
23,Cc1cccc(OCCCC(=O)Nc2ccc(Br)cc2)c1,7.3

row,Compound,"hERG current change (%, negative = inhibition) at 1uM [%]"
1,O=[N+]([O-])c1cccc(-c2nc3ccc([N+](=O)[O-])cc3[nH]2)c1,10.3
2,CC(C)Cn1c2c(c(O)c(C(=O)Nn3c(Cc4ccccc4)nc4ccccc4c3=O)c1=O)CCCC2,9.27
3,CCOC(=O)N1CCC(NC(=O)c2cnn3ccccc23)CC1,12
4,CCCCNC(=O)N(c1c(N)n(Cc2ccccc2)c(=O)[nH]c1=O)C1CCCC1,13.2
5,CNc1ncnc(Sc2ccc(Cl)cc2)c1[N+](=O)[O-],10.1
6,CCC(CC)C(=O)Nc1cccc(/C(C)=N/NC(=O)c2ccccc2Cl)c1,5.17
7,O=C(Nc1ccncc1)c1ccc(Cl)c(S(=O)(=O)N2CCc3ccccc32)c1,11.5
8,S=C(NCCCc1ccccc1)Nc1ccccc1Cl,5.96
9,O=C(N/N=C/c1ccc(N2CCOCC2)s1)c1ccccc1Cl,13.5
10,C[N+](C)(C)CCOC(=O)C1(c2ccccc2)CCCC1.[I-],4.04
11,O=C(O)CCCNC(=O)Cc1ccccc1,12.7
12,Cn1c(=O)c2c(nc(CN3CCN(C(=O)c4ccco4)CC3)n2Cc2ccc(Cl)cc2)n(C)c1=O,-37.2
13,COc1ccc(OCCCC(=O)Nc2ccc(N3CCOCC3)cc2)cc1,9.59
14,CCN(CC(=O)N1CCN(C)CC1)S(=O)(=O)c1ccc(Cl)cc1,3.08
15,O=C1C2CC=C(Cl)CC2C(=O)N1CNc1ccccn1 (stereo not drawn),15.8
16,O=C(O)Cc1ccc(NS(=O)(=O)c2ccccc2Cl)cc1,8.62
17,CC(C)CCC(O)(CCC(C)C)C(=O)NNc1ccccc1,-3.75
18,CC(=O)c1cccc(N=C2NC(=O)C(CO)(CO)S2)c1,3.48
19,CC(C)NC(=O)NS(=O)(=O)c1cnccc1N1CCCCC1,14.1
20,COc1ccccc1C(=O)NCC(c1cccnc1)N(C)C (stereo not drawn),-1.44
21,COc1ccc(Cl)cc1NC(=O)CN(C)CC(=O)Nc1ccc(Br)cc1,5.56
22,CCOC(=O)Nc1cc(NC(=O)OCC)c(C)nc1C,2.31
23,CC(Oc1cc2oc(=O)c3c(c2cc1Cl)CCC3)C(=O)N1C[C@H]2C[C@@H](C1)c1cccc(=O)n1C2 (stereo partly drawn),-4.75

row,Compound,"hERG current change (%, negative = inhibition) at 1uM [%]"
1,O=C(Nc1ccc2c(c1)OCO2)C1CCN(S(=O)(=O)c2ccc3c(c2)OCCO3)CC1,11.3
2,COc1ccc(CNC(=O)COc2cc(O)c3c(c2)OC(C)(C)CC3=O)cc1,-11.9
3,Cc1cccc(-n2c(O)c(C=NC34CN5CN(CN(C5)C3)C4)c(=O)[nH]c2=O)c1,2.16
4,CCOC(=O)C1=C(CC)Nc2ccccc2N=C1NC(=O)c1cccc(S(=O)(=O)N2CCOCC2)c1,7.28
5,CS(=O)(=O)N1CC(C(=O)NC2CC2)Oc2ccc(Cl)cc21 (stereo not drawn),16.9
6,Cc1nn(-c2ccccc2)c(Cl)c1/C=N\NC(=O)c1cnccn1,7.01
7,CC(=O)Nc1ccc(NC(=O)c2cc(=O)c3ccccc3o2)cc1,14.6
8,Cc1ccccc1N1CCN(Cc2cccc(C(=O)O)c2)CC1.Cl,4.2
9,CCN(C(=O)CSc1nc(-c2ccccc2)cn1N)c1c(N)n(Cc2ccccc2)c(=O)[nH]c1=O,12.2
10,CCOC(=O)/C(C)=N/NC(=O)c1ccc([N+](=O)[O-])cc1,4.23
11,CCOC(=O)N1CCC(NC(=O)CN(C)S(=O)(=O)c2cc3c(cc2Cl)NC(=O)CO3)CC1,17.2
12,O=C(NCC(c1ccc(F)cc1)N1CCOCC1)c1cccnc1Sc1ccccc1Cl (stereo not drawn),8.19
13,CC1=CC(=C(C#N)c2nc3ccccc3s2)C=C(C)N1CC1CCCO1 (stereo not drawn),10.4
14,CCCCc1ccc(-c2c(C#N)c(N)nc3c2CCCC3)s1,4.41
15,COc1ccc(CN2CCN(C(=O)CC(C)C)CC2)c2ccccc12,7.79
16,O=C(CN1CCN(C(c2ccccc2)c2ccccc2)CC1)N1CCOCC1.O=C(O)C(=O)O,1.74
17,CN(C(=O)COC(=O)c1cccnc1Nc1ccccc1F)C1CCS(=O)(=O)C1 (stereo not drawn),7.08
18,O=C(/C=C/c1ccco1)Nc1nc(-c2ccccn2)cs1,10.9
19,CCN(C(=O)Cn1c(=O)oc2ccccc21)c1c(N)n(Cc2ccccc2)c(=O)[nH]c1=O,13.7
20,Cc1cccc(C(=O)NCC2CCN(C(=O)c3cccc(C)c3)CC2)c1,-2.21
21,Cl.O=[N+]([O-])c1ccc2ncnc(N3CCN(Cc4ccc5c(c4)OCO5)CC3)c2c1,11.4
22,O=C(COc1cccc2cccnc12)N1CCc2ccccc21,10
23,COc1ccc(CC(=O)NNC(=O)CSc2nc(C)c(C)c(=O)[nH]2)cc1,15.5

row,Compound,"hERG current change (%, negative = inhibition) at 1uM [%]"
1,CCc1noc(C)c1C(=O)N1CCN(S(=O)(=O)c2ccc(Cl)s2)CC1,5.94
2,CC(C)c1ccc(C(=O)NC2=NCCS2)cc1,7.64
3,O=C(c1ccc2ccccc2c1)N1CCN(c2ccccc2)CC1,4.03
4,O=C(Cc1cc(=O)[nH]c(=O)[nH]1)N1CCC(Cc2ccccc2)CC1,17.1
5,O=C(CC(C(=O)NCc1ccccc1)c1nc2ccccc2c(=O)[nH]1)NCc1ccccc1 (stereo not drawn),11.1
6,CC1CCCC(C)N1NC(=O)Cc1ccccc1 (stereo not drawn),16.3
7,COC(=O)C(C)Oc1ccc(Cc2ncc(C(F)(F)F)cc2Cl)cc1 (stereo not drawn),12.5
8,Cc1ccc2[nH]c(=O)c(CN(CCCO)C(C)c3nnnn3Cc3ccco3)cc2c1 (stereo not drawn),9.01
9,Cn1c(NN)nc2c1c(=O)n(Cc1ccccc1)c(=O)n2C,16.5
10,CCOC(=O)C1(CCOC)CCN(Cc2ccncc2)CC1,18.4
11,CC1(C)Cc2c(cnn2-c2cccc(F)c2)C(NC(=O)c2csnn2)C1 (stereo not drawn),-85
12,O=C(c1ccco1)N(CCC(c1ccccc1)c1ccco1)Cc1ccc(F)cc1 (stereo not drawn),-7.5
13,CC1SCC(=O)N(CC(=O)NCc2ccccc2)C1=O (stereo not drawn),17.2
14,CC1(C)Nc2ccccc2C(=O)N1c1ccccc1,15.8
15,O=C(O)c1cccc(NC(CNS(=O)(=O)c2ccc(Cl)cc2)c2ccccc2)c1 (stereo not drawn),12.9
16,Cc1ccc(NC(=O)NC2CC(=O)N(c3ccc4c(c3)OCCO4)C2)cc1 (stereo not drawn),11.3
17,O=S(=O)(NCc1cc(-c2ccccc2)no1)c1ccccc1Cl,10.2
18,CCNC(=O)c1ccc(C2SCC(=O)N2Cc2ccco2)cc1 (stereo not drawn),7.71
19,Cn1cc(C(=O)NCc2ccccc2F)cn1,11.5
20,CCCOc1ccc2c(C)c(CC(=O)OC)c(=O)oc2c1,4.92
21,CCOC(=O)C1C(=O)NC(N2CCCCC2)=NC1c1ccco1 (stereo not drawn),11.8
